Measured values published in the supplement of paper PMC7826260.
The list shows a part of the results. Each Rep nickase domain was tested in vitro on the same pool of single strands at 3 µM enzyme and 37 °C for 1 h; the strands have 90 letters, of which the middle is given. Numbers give uncut DNA relative to the enzyme-free pool, as log2; uncut sequences lie near 0, cut ones below; no hit call is given. The scaling is to total reads; values above 0 arise when much of the pool is cut.

Test system: T1, Rep nickase domain of tomato golden mosaic virus
T1 sequence (residues 1-124, tag not shown): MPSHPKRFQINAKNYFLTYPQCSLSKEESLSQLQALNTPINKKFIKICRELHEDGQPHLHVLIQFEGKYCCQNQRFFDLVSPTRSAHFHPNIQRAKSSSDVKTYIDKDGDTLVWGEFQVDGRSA
Assay: uncleaved DNA left, log2 of reads against the no-enzyme library (log2 ratio); higher = less cleavage (more negative = more Rep cleavage of the k-mer); sequences stand for … in CTCGTCCG…ACCGGAGA
Protocol: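 A pool of 90-nt single-stranded DNAs with seven random bases just before the constant AC of the nick site (name = the seven bases) was cut by 3 µM recombinant His6-SUMO-tagged Rep nickase domain (300 nM DNA, 50 mM HEPES pH 8.0, 50 mM NaCl, 1 mM MnCl2, 1 h, 37 °C, three replicates). Uncut DNA was amplified and sequenced.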

| Sequence | uncleaved DNA left (log2) |
| --- | --- |
| CGCTCCC | -0.246 |
| CGCAGCC | -0.088 |
| AAAATTA | 0.026 |
| GTCCAAC | 0.0782 |
| AACTTGC | -0.182 |
| GTCGGAA | 0.0397 |
| TCCGGCG | 0.105 |
| ACTCTTA | -0.0601 |
| AGACTCC | -0.0107 |
| GGTGTAA | 0.146 |
| GCACAAT | 0.03 |
| GCGCTAT | -0.177 |
| CGTGATA | 0.0187 |
| CGTCGGG | -0.159 |
| CAGGGAG | 0.0856 |
| CTAGGTT | 0.0307 |
| TGTACCA | 0.0511 |
| CCTTTTC | -0.148 |
| ATCCTTA | 0.0825 |
| AGCTTCC | -0.0355 |

| Sequence | uncleaved DNA left (log2) |
| --- | --- |
| CATACAA | -0.0992 |
| CTTACGC | -0.087 |
| GTTGCTT | -0.0365 |
| CTCAACA | 0.0255 |
| TGGTTTT | -0.0766 |
| TGATTGG | -0.0597 |
| TGTCTGC | 0.0454 |
| GGCAGTA | 0.0314 |
| GCAGTAG | 0.0691 |
| ATATGCC | -0.0655 |
| TCCACTG | -0.0937 |
| GGTTTTA | 0.0946 |
| AACCCAA | -0.025 |
| GTGTGGT | 0.105 |
| GGAAAAG | 0.116 |
| GGTGGGT | 0.0538 |
| ATTAGTA | 0.107 |
| CTTTACG | -0.079 |
| GATAAAT | 0.0726 |
| TAACGTC | -0.158 |
